About 2,200 (0.71%) of roughly 310,000 compounds showed an effect of 50% or more. Effects have a minus sign here. The list shows a part of the results.
molecular target: human ether-à-go-go-related gene (hERG) potassium channel (human, UniProt Q12809); assay: primary screen, population patch clamp on CHO cells stably expressing hERG
Sequence (Q12809 whole entry, looked up): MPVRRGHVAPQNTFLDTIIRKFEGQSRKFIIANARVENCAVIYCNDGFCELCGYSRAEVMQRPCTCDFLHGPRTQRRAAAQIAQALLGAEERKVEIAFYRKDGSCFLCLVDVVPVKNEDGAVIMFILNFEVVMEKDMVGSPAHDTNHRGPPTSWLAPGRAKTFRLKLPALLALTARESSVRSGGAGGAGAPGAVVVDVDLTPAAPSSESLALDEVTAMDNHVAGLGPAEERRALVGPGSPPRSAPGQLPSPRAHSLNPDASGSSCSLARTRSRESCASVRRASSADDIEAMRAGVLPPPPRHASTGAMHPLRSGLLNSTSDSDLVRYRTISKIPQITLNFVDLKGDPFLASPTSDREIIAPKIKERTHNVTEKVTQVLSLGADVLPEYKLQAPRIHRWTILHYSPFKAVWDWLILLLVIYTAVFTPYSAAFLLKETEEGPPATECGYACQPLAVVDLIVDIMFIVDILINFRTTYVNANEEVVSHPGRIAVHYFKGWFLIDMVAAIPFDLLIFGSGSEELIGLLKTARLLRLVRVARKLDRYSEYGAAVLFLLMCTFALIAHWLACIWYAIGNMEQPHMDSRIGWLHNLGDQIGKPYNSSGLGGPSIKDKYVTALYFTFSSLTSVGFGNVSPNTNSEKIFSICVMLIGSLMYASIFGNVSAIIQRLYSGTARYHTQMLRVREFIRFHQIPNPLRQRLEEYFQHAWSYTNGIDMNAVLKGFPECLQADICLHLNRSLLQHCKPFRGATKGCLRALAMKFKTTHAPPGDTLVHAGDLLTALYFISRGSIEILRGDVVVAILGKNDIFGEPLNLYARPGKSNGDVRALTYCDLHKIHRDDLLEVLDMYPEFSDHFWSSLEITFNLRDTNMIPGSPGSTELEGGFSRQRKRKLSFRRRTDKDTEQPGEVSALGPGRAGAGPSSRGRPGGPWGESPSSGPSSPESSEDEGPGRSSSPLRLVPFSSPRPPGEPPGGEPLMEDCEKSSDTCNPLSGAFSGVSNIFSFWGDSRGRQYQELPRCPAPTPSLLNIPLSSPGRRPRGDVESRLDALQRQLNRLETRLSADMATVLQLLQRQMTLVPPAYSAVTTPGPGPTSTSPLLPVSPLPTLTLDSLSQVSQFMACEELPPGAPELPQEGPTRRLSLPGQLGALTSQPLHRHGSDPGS

SMILES | hERG current change (%, negative = inhibition) at 1uM
CN(C)CCO/N=C(\c1ccc(Br)cc1)c1cccnc1.O=C(O)C(=O)O | -20.4%
Cc1ccc(Cc2cnc(NC(=O)c3ccco3)s2)cc1 | 14.8%
Cc1nc2sc(C(c3cccc(F)c3)N3CCN(C(=O)c4ccco4)CC3)c(O)n2n1 (stereo not shown) | -11.4%
O=C(COC(=O)CNC(=O)c1cccs1)Nc1ccc(C(F)(F)F)cc1[N+](=O)[O-] | 4.66%
COc1ccc(Cl)cc1S(=O)(=O)n1nnc2ccccc21 | 6.61%
O=C(CN1C(=O)/C(=C/c2ccccc2F)Sc2ccccc21)NCC1CCCO1 (stereo not shown) | 4.24%
CCOc1ccc(N(Cc2cc3cc(C)ccc3[nH]c2=O)S(=O)(=O)c2ccccc2)cc1 | 15.8%
O=C1CCC(=O)N1c1cccc(-c2nc3ccccc3o2)c1 | 11.2%
CCOc1cc(C(=O)Nc2cc(C)on2)cc(OCC)c1OCC | 15.7%
CN(C)C(=O)COC(=O)c1ccccc1Sc1ccccc1C#N | 0.396%
O=C(Nc1ccccc1N1CCCC1)c1ccc([N+](=O)[O-])cc1Cl | 11.9%
Cc1csc(SCC(=O)NC(C)c2ccccc2)n1 (stereo not shown) | 7.43%
Cc1nn(Cc2ccccc2Cl)c2sc(C(=O)Nc3nccs3)cc12 | 7.9%
CS(=O)(=O)N(CC(=O)NCCSCc1ccccc1)c1ccccc1Br | 17.3%
CCCC(C)NNC(=O)c1cc2ccccc2[nH]1 (stereo not shown) | 10.8%
CC1(C)CC(NC(=O)c2ccccc2)CC(C)(C)N1 | 13%
CCOc1ccc2nc(/N=C/c3c(C)[nH]n(-c4ccccc4)c3=O)sc2c1 | 16.1%
Clc1ccc(Cn2c(/C=C/c3ccco3)nc3ccccc32)cc1 | 11.3%
O=C(NNS(=O)(=O)c1ccc(CCCl)cc1)C(O)(c1ccccc1)c1ccccc1 | -6.5%
CC(=O)N/N=C(\C)CC(=O)Nc1ccc2c(c1)OCCO2 | 9.75%
Cc1ccc(-n2c(SCC(=O)OC(C)C)nnc2-c2ccccn2)cc1 | 3.08%
COc1ccc(NC(=O)CSc2ncnc3c2cnn3Cc2ccccc2)cc1 | 13.8%

SMILES | hERG current change (%, negative = inhibition) at 1uM
CCN(CC)C(=O)Cn1ncc2c1-c1ccccc1OC2 | 1.51%
CCCCCNc1nc2sc3c(c2c(=O)n1-c1cccc(Cl)c1)CCN(C)C3 | 2.06%
Cc1ccsc1C(=O)N1CCN(C(=O)c2ccco2)CC1 | 2.43%
O=C(CCCSc1nc2ccccc2[nH]1)Nc1nnc(-c2ccccc2)o1 | 3.61%
Cc1ccc(SCc2c(C#N)c3ccccc3n2C)cc1 | 6.41%
C=CCN1C(=O)C(CC(=O)NCC)SC1=Nc1ccccc1CC (stereo not shown) | 11.7%
CCCn1c(/C=C/c2ccccc2)nc2ccccc21 | -13.6%
COc1ccc(C(=O)NC(C)CCc2ccccc2)cc1 (stereo not shown) | 9.15%
Cc1ccc(C(=O)NCCNC(=O)COc2ccc(C)c(C)c2)cn1 | 8.16%
CCOC(=O)Nc1ccc2c(c1)N(C(=O)CCN1CCOCC1)c1ccccc1S2=O.Cl (stereo not shown) | -3.88%
CN1CCN(CCCCOc2ccccc2C=O)CC1.O=C(O)C(=O)O | -3.34%
COc1ccc(C(=O)NNC(=S)NC(=O)c2ccccc2)cc1 | 14.2%
N#Cc1cnn2cc(-c3ncc(C(F)(F)F)cc3Cl)cnc12 | -5.65%
Cc1cnc(C(=O)NCc2ccc(Cl)cc2Cl)cn1 | 0.681%
CC(C)c1nc(SCC(=O)Nc2ccc3c(c2)OCO3)n[nH]1 | 22.5%
Cc1occc1C(=O)Nc1ccc(S(=O)(=O)N2CCCC2)cc1 | -8.3%
COC(=O)c1ccc2c(c1)NC(=O)C1CCCN21 (stereo not shown) | 1.94%
CC(C)CNS(=O)(=O)c1ccc(CCC(=O)NCc2ccncc2)cc1 | 18.9%
C/C(=N/NC(=O)c1cccc(C)c1)c1c(O)cc(C)oc1=O | 10.8%
O=C1[C@@H]2Cc3c([nH]c4ccccc34)C(c3cccc(Br)c3)N2C(=O)CN1C1CCN(Cc2ccccc2)CC1 (stereo partly shown) | 13.9%
COc1ccc(C(=O)COC(=O)c2ccc([N+](=O)[O-])s2)cc1OC | 2.42%
OC(CNc1ccccc1)COc1ccc(OCC(O)CNc2ccccc2)cc1 (stereo not shown) | -0.255%

SMILES | hERG current change (%, negative = inhibition) at 1uM
O=C(NCCN1CCCCC1)c1cc(COc2c(F)cccc2F)on1 | -2.1%
CC(=O)Nc1ccc2nc(NC(=O)COc3ccc([N+](=O)[O-])cc3)sc2c1 | 2.89%
O=C(Cn1nnc2ccccc21)OCc1ccccc1 | 10.3%
COc1ccc(OC)c(C(=O)NC(CC(N)=O)c2ccc(NCC3CC3)c([N+](=O)[O-])c2)c1 (stereo not shown) | -0.903%
Cc1cccc(OCC(=O)Nc2ccccc2N2CCCC2)c1C | 4.72%
Cc1ccc(NS(=O)(=O)c2cn(C)cn2)cc1 | 14.3%
Cc1cccc(C(=O)Nc2ncc(CN3CCOCC3)s2)c1 | 12.1%
CS(=O)(=O)Nc1cccc(C2=NN(S(C)(=O)=O)C(c3ccccc3)C2)c1 (stereo not shown) | 1.36%
Cc1[nH]c(C)c(C(=O)/C=C/c2ccc([N+](=O)[O-])cc2)c1C | 7.09%
O=C(O)CN=CC1=C(O)CC(c2ccccc2)CC1=O (stereo not shown) | 17.3%
CCN(C(=O)C1CCN(c2nc(-c3ccc(OC)cc3)no2)CC1)c1ccccc1 | -5.53%
COc1cc(C(=O)N2CCC(NC(=O)C(Cc3ccc(C)cc3)NC(C)=O)CC2)cc(OC)c1OC (stereo not shown) | 12.4%
Nc1nonc1C(=O)N/N=C/c1ccc(-c2cccc(C(=O)O)c2)o1 | 13%
COc1ccc(-c2ccc3nnc(SCC(N)=O)n3n2)cc1 | 16.8%
CCN(CC)CCN(C(=O)c1ccc(C(=O)c2ccccc2)cc1)c1nc2c(OC)cccc2s1.Cl | -33%
Cc1ccc(C(=O)NC(=S)N(C)C2CCCCC2)cc1Br | 8.35%
O=C(CN1C(=O)CCS(=O)(=O)c2ccccc21)NCc1ccccc1 | 4.2%
CC/C(=N\NC(=O)c1nnn(-c2nonc2N)c1-c1cccc(OC)c1)c1ccc(C)cc1 | 19.3%
CCOC(=O)[C@@H]1[C@H]2COc3ccc(Br)cc3[C@@H]2N2C(=O)N(c3cccc(F)c3)C(=O)[C@]12C | 8.87%
CCN(CC)CCn1c2c(c(SCC(=O)Nc3cccc4ccccc34)nc1=O)CCCC2 | -14.2%
Nc1nccnc1C(=O)OCC(=O)NCCc1ccc(Cl)cc1 | 0.206%
O=C(NCCCNC(=O)c1ccccc1F)c1ccco1 | 13.5%

SMILES | hERG current change (%, negative = inhibition) at 1uM
COC(=O)c1c(O)c2ccccc2[nH]c1=O | -9.26%
O=C(COc1ccc(Cl)cc1Cl)Nc1ccccc1NS(=O)(=O)c1cccs1 | 13.4%
Cc1c(-c2ccccc2)sc(Br)c1C(=O)N1CCOCC1 | 0.902%
CCOc1ccc(C2C(C(=O)c3ccc(C)o3)=C(O)C(=O)N2c2cc(C)on2)cc1OC (stereo not shown) | 11.4%
Cc1cc(C)cc(C(=O)NCC(=O)OCC(=O)c2cc(C)n(CC(F)(F)F)c2C)c1 | -23.1%
COc1ccc(C2CCCN2C(=S)Nc2cccc(C)c2C)cc1OC (stereo not shown) | 10.4%
CC(C)N(C)CCOC(=O)c1ccccc1Br.Cl | -0.153%
Cc1cc(C)cc(C(=O)Nc2nc3ccccc3[nH]2)c1 | 16%
CC1CCN(c2ccc(C(=O)OCC(=O)NCCN3C(=O)CSC3=O)cc2[N+](=O)[O-])CC1 | 3.11%
CCC(c1nnc(SCC(=O)N2CC(=O)Nc3ccccc32)n1Cc1ccccc1)N(C)C (stereo not shown) | -2.89%
Cc1ccc(N2NC(=O)/C(=C\c3cc4c(cc3[N+](=O)[O-])OCO4)C2=O)cc1C | 0.881%
O=[N+]([O-])c1cc2oc3c(c2c(C=NCc2ccccc2)c1O)CCCC3 | 14.4%
CCCCNC(=O)N1CCN(Cc2ccc(F)cc2)CC1 | 9.29%
COc1ccc(CC(=O)Nc2nc(-c3ccc(OC)c(OC)c3)cs2)cc1OC | 13.7%
CC1CN(S(=O)(=O)c2cccs2)CC(C)O1 (stereo not shown) | 0.555%
COc1ccc(S(=O)(=O)Nc2ccc(Nc3ccccc3)cc2)cc1 | 9.59%
O=C(NCCc1c[nH]c2ccccc12)C(=O)NCC1OCCCN1S(=O)(=O)c1ccccc1 (stereo not shown) | 6.83%
CC(C)(C)n1nc(Cc2cccc3ccccc23)c2c(N)ncnc21 | 15.8%
Cc1cc(C)c2oc(=O)cc(CN3CCC(C)CC3)c2c1 | 11.5%
O=C(O)c1ccc2c(c1)C(=O)N(CCc1ccccc1)C2=O | 14.3%
CN(C)c1cc[n+](CC(=O)Nc2ccc(OC(F)F)cc2)cc1.[Cl-] | 10.3%
O=C(NC1CCCC1)c1ccc(Br)s1 | -5.43%

From publication PMC4336329 (PLoS ONE, 2015)
